{
  "source": "PubChem BioAssay AID2147",
  "about": "(National Center for Advancing Translational Sciences (NCATS), 2009)",
  "note": "Out of some 230,000 compounds screened, about 3,600 (1.6%) were called active. This list was built around the results that the source calls inconclusive (neither active nor inactive); the mix of calls is not that of the screen. Calls come from the whole dose curve; as a rule, active = well fitted inhibition curve with a large enough effect (not every such curve was filed as active); inconclusive = small, poorly fitted or top-dose-only effect, or another doubt; inactive = no such curve, though single readings can be large or run the other way. Potencies beside an inconclusive call are fits to weak or partial responses and may not hold up. Note: nearly all actives have a fitted effect of over 50% in size. Potency is the fitted concentration of half-maximal effect; tags give direction and shape of the fitted curve.",
  "data": [
    {"target": "Lysine-specific demethylase 4E (Homo sapiens) (UniProt B2RXH2)", "sequence (B2RXH2 whole entry, looked up, the tested form may be a part)": "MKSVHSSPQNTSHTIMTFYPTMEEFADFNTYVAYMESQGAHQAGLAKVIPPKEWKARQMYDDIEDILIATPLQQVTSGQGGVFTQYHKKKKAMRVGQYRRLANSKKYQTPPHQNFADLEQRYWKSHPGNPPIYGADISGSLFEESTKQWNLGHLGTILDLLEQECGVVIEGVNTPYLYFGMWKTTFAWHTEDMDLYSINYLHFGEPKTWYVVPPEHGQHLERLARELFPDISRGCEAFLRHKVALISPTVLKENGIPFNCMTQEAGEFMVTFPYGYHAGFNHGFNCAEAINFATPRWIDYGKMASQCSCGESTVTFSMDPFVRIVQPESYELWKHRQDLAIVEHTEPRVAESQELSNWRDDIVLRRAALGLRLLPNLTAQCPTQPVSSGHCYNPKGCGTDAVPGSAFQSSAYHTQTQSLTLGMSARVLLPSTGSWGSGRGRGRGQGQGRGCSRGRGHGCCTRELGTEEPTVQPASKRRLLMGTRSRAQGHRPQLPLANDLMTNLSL", "assay": "qHTS Assay for Inhibitors of Human Jumonji Domain Containing 2E (JMJD2E)", "conditions": "JMJD2E catalytic domain, FDH-coupled NADH fluorescence (FDH is formaldehyde dehydrogenase); series mostly up to 57.1 µM", "values": [
      {"smiles": "CCN(CC)C(=O)/C(=C/c1cn(S(=O)(=O)N(C)C)c2ccccc12)NC(=O)c1ccc(OC)cc1", "Potency": "inconclusive: 28.2 µM [inhibitor, single point]"},
      {"smiles": "CCc1c(C)nc2cc(-c3cccs3)[nH]n2c1=O", "Potency": "inconclusive: 31.6 µM [inhibitor, partial curve]"},
      {"smiles": "O=C(Cc1cccc2ccccc12)Nc1ccc(N2CCOCC2)cc1", "Potency": "inconclusive: 39.8 µM [inhibitor, single point]"},
      {"smiles": "CCN1C=C(Cc2ccc(OC)cc2)C2=C(C1)C(c1ccc(OC)cc1)C(C#N)=C(N)O2", "note": "(centres undefined)", "Potency": "inconclusive: 22.4 µM [inhibitor, single point]"},
      {"smiles": "C=C(C)C1CCC2(C(=O)O)CCC3(C)C(CCC4C5(C)C(C=O)C(O)C(C)(C)C5CCC43C)C12", "note": "(centres undefined)", "Potency": "inactive"},
      {"smiles": "CCCc1nnc2n1N=C(c1ccc(-c3cc(Cl)ccc3Cl)o1)CS2", "Potency": "inconclusive: 31.6 µM [inhibitor, single point]"},
      {"smiles": "COC(=O)C(C(C)C)N1CCc2c(C)nc3c(C#N)cnn3c21", "note": "(centres undefined)", "Potency": "inconclusive: 25.1 µM [inhibitor, partial curve]"},
      {"smiles": "CNc1ccc(Br)cc(C(=O)/C=C/c2cc(OC)ccc2OC)c1=O", "Potency": "inconclusive: 35.5 µM [inhibitor, single point]"},
      {"smiles": "C[C@](N)(COP(=O)(O)O)C(=O)O", "Potency": "inconclusive: 39.8 µM [inhibitor, single point]"},
      {"smiles": "COc1cc(C=O)ccc1OCC(=O)NC(C)(C)C", "Potency": "inactive"},
      {"smiles": "O=C(CNC(=O)c1ccncc1)N/N=C/c1ccccn1", "Potency": "inactive"},
      {"smiles": "CCCNC(=O)c1ccc2c(=O)c(O)c(-c3ccc(C)cc3)[nH]c2c1", "Potency": "inconclusive: 31.6 µM [inhibitor, single point]"},
      {"smiles": "Cc1[nH]c2ccccc2c1/C=N/Nc1nc(N2CCCCC2)nc(N2CCCCC2)n1", "Potency": "inactive"},
      {"smiles": "CC(C)OP(=O)(OC(C)C)C(Nc1cccc(C(=O)O)c1)c1ccccc1", "note": "(centres undefined)", "Potency": "inconclusive: 31.6 µM [inhibitor, partial curve]"},
      {"smiles": "COc1ccccc1OCCNS(=O)(=O)c1ccc2oc3ccccc3c2c1", "Potency": "inconclusive: 35.5 µM [inhibitor, single point]"},
      {"smiles": "CCCc1nc2sc3c(SCC(=O)NCc4ccco4)ncnc3c2c2c1CCC2", "Potency": "inconclusive: 39.8 µM [inhibitor, single point]"},
      {"smiles": "O=C(Oc1c(CN2CCOCC2)cc(Cl)c2cccnc12)c1ccccc1", "Potency": "inactive"},
      {"smiles": "N#Cc1c(-c2ccc(F)cc2)cc(-c2cccnc2)nc1N", "Potency": "inconclusive: 3.16 µM [inhibitor, partial curve]"},
      {"smiles": "CCN(N=Nc1cccc([N+](=O)[O-])c1)c1cccc([N+](=O)[O-])c1", "Potency": "inactive"},
      {"smiles": "O=C(c1cnn2c(C(F)F)cc(-c3ccccc3)nc12)N1CCCCC1c1cccnc1", "note": "(centres undefined)", "Potency": "inconclusive: 35.5 µM [inhibitor, single point]"},
      {"smiles": "Cc1cc(C(F)(F)F)nc(SCC(=O)NC2=NC(=O)C(C)S2)n1", "note": "(centres undefined)", "Potency": "inactive"},
      {"smiles": "CCOc1ccccc1NC(=O)COC(=O)/C=C/c1ccc(OC)c(OC)c1", "Potency": "inconclusive: 35.5 µM [inhibitor, single point]"},
      {"smiles": "COc1ccccc1-n1c([S-])c(C(=O)Nc2ccccc2C(F)(F)F)[n+]2ccc(C(=O)NCCO)cc12", "Potency": "inconclusive: 35.5 µM [inhibitor, single point]"},
      {"smiles": "CC(C)Oc1ccc(C(=O)NC2(C(F)(F)F)NC(=O)N(CCCc3ccccc3)C2=O)cc1", "note": "(centres undefined)", "Potency": "inactive"},
      {"smiles": "N#Cc1nc(-c2cccs2)oc1NCCCN1CCOCC1", "Potency": "inconclusive: 31.6 µM [inhibitor, partial curve]"},
      {"smiles": "CCC1CCCCN1C(=O)COC(=O)c1n[nH]c2ccccc12", "note": "(centres undefined)", "Potency": "inconclusive: 31.6 µM [inhibitor, partial curve]"},
      {"smiles": "COc1cc(-c2cc(C(=O)N3CCN(c4ccccn4)CC3)c3ccccc3n2)cc(OC)c1OC", "Potency": "inconclusive: 31.6 µM [inhibitor, single point]"},
      {"smiles": "Cc1cc(C)cc(NC(=O)COC(=O)[C@@H](NC(=O)c2ccco2)C(C)C)c1", "Potency": "inconclusive: 39.8 µM [inhibitor, single point]"},
      {"smiles": "CN(C)c1oc(-c2ccc(OCc3ccccc3)cc2)nc1C#N", "Potency": "inconclusive: 31.6 µM [inhibitor, partial curve]"},
      {"smiles": "Cc1ccccc1NC(=O)/C=C/c1cccc(C(F)(F)F)c1", "Potency": "inconclusive: 28.2 µM [inhibitor, single point]"},
      {"smiles": "C=CCOC(=O)N[C@H](C[N+](=O)[O-])c1ccccc1", "Potency": "inactive"},
      {"smiles": "NC1=Nc2cccc3cccc1c23", "Potency": "inconclusive: 25.1 µM [inhibitor, single point]"},
      {"smiles": "OC(CN1CCCCC1)CN(c1ccccc1)c1ccccc1", "note": "(centres undefined)", "Potency": "inconclusive: 39.8 µM [inhibitor, single point]"},
      {"smiles": "CCOC(=O)c1cc2c(=O)n3ccccc3nc2n(CCOC)c1=NC(=O)c1ccncc1", "Potency": "inconclusive: 31.6 µM [inhibitor, partial curve]"},
      {"smiles": "CCn1cc(C(=O)O)c(=O)c2cc(F)c(N3CCN(C(=S)NC(=O)c4ccc(F)c(F)c4)CC3)cc21", "Potency": "inactive"},
      {"smiles": "COc1ccccc1CNCc1cc(Br)ccc1OC", "Potency": "inconclusive: 17.8 µM [inhibitor, partial curve]"},
      {"smiles": "CCOC(=O)Cc1csc(NC(=O)/C=C/c2cccc(Br)c2)n1", "Potency": "inconclusive: 39.8 µM [inhibitor, single point]"},
      {"smiles": "CCOc1ccc(NC(=S)N(CCc2c(C)[nH]c3ccccc23)Cc2ccco2)cc1", "Potency": "inactive"},
      {"smiles": "c1ccc2c(c1)ccc1nnc(-c3ccc4c(c3)OCO4)n12", "Potency": "inconclusive: 28.2 µM [inhibitor, partial curve]"},
      {"smiles": "CCOC(=O)c1[nH]c(C)c(/C(O)=C2\\C(=O)C(=O)N(CCN(C)C)C2c2cccc(OC)c2OC)c1C", "note": "(centres undefined)", "Potency": "inconclusive: 22.4 µM [inhibitor, single point]"},
      {"smiles": "CC(OC(=O)c1cccs1)C(=O)NCc1ccc2c(c1)OCO2", "note": "(centres undefined)", "Potency": "inactive"},
      {"smiles": "NC(=S)NNC(=O)Nc1cccc(Cl)c1", "Potency": "inactive"},
      {"smiles": "N[C@@H](C(=O)O)c1ccc(C(=O)O)c(O)c1", "Potency": "inconclusive: 15.8 µM [inhibitor, full curve]"},
      {"smiles": "COc1ccc(C(=O)Nc2nc3ccc(S(C)(=O)=O)cc3s2)cc1OC", "Potency": "inconclusive: 25.1 µM [inhibitor, partial curve]"}
    ]}
  ]
}
